From PubChem BioAssay AID686979 (National Center for Advancing Translational Sciences (NCATS), 2013)
About 50,000 (12%) of roughly 420,000 compounds were called active. Inconclusive results, whose numbers are uncertain, are shown with a selection of clear calls. The call rests on the fitted dose curve; in most records, active means well fitted inhibition curve with a large enough effect; inconclusive means small, poorly fitted or top-dose-only effect; inactive means flat fitted curve, though single readings scatter. No potency is given beside an inconclusive call; the fits are too rough.

Assay: qHTS for Inhibitors of human tyrosyl-DNA phosphodiesterase 1 (TDP1): qHTS in cells in presence of CPT; further: nearly all actives have a fitted effect of over 55% in size
Details: chicken DT40 Tdp1-/-;hTDP1 cells + 20 nM CPT, ATP luminescence, 48 h; activity change, negative = growth inhibition: at 46.2 µM (top of the series)
Summary of the method: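 Cell growth measured by CellTiter-Glo luminescence after a minimum 48 h, 37 C compound exposure with 20 nM CPT in Tdp1-knockout DT40 cells stably expressing hTDP1, seeded 400/well; qHTS titration format.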
On the % scale 0 is the no-effect control and ±100 the full control effect; potency means the concentration at half of the fitted maximal effect; tags describe the fitted curve by direction and shape.

Row | Structure (SMILES) | Potency | activity change, negative = growth inhibition
1 | CC(=O)c1ccc(OCC(=O)NC(=O)NC2CCCC2)cc1 | inconclusive [inhibitor, single point] | 
2 | Cc1nn(CC(=O)OCC(=O)NCCc2ccc(F)cc2)c(C)c1[N+](=O)[O-] | inactive | 
3 | CCOC(=O)CCSCC(=O)Nc1cc(C)on1 | inactive | 
4 | Cc1ccc(C(=O)/C=C/c2ccccc2)o1 | inconclusive [inhibitor, single point] | 
5 | C=CCn1c(=O)c2c(nc3n2CCCN3CCc2ccc(OC)c(OC)c2)n(C)c1=O | inactive | 
6 | O=C1CSC(c2cccnc2)N1Cc1ccc(Cl)cc1Cl (centres undefined) | inactive | 
7 | O=C(NCC1CCCO1)c1ccc2c(=O)n(CC3CCCO3)c(=S)[nH]c2c1 (centres undefined) | inactive | 
8 | CCOc1ccccc1Nc1nc2ccccc2c2nncn12 | inactive | 
9 | Cc1ccc(-c2c[n+](CC(=O)Nc3cc(=O)n(C)c(=O)n3C)c3n2CCC3)cc1 | inconclusive [inhibitor, single point] | 
10 | O=C(CNC(=S)N(CCCN1CCOCC1)Cc1cccs1)NCc1ccc(Cl)cc1 | inconclusive [inhibitor, single point] | 
11 | CC(C)(C)NC(=O)C[C@H]1C[C@H](C(=O)N2CCCCC2)[C@@]2(CCc3ccccc3)c3[nH]c4ccc(Cl)cc4c3CCN2C1=O | inconclusive [inhibitor, single point] | 
12 | Cc1[nH]nc2c1C(c1ccc3c(c1)OCO3)C(C#N)=C(N)O2 (centres undefined) | inconclusive [inhibitor, single point] | 
13 | COC(=O)[C@@]12C[C@@H](CC(=O)N3CCSCC3)C(=O)N(Cc3ccc4c(c3)OCO4)C1=CCC(C)(C)C2 | inconclusive [inhibitor, single point] | 
14 | COc1ccccc1-c1ccc2c(c1)O[C@@H](CN(C)C(=O)c1ccncc1)[C@H](C)CN([C@@H](C)CO)S2(=O)=O | inconclusive [inhibitor, single point] | 
15 | Cc1onc(-c2ccccc2)c1C(=O)OCC(=O)c1ccc(F)cc1 | inconclusive [inhibitor, single point] | 
16 | Nn1c(SCC(=O)Nc2cc(C(F)(F)F)ccc2Cl)nncc1=O | inconclusive [inhibitor, single point] | 
17 | O=C(O)c1ccc(OCC2CCCO2)cc1 (centres undefined) | inactive | 
18 | CCC1(C)CC(CCN(Cc2ccco2)C(C)=O)(c2ccccc2)CCO1 (centres undefined) | inconclusive [inhibitor, single point] | 
19 | Cc1ccc(NC(=S)NCC2CCN(C(C)c3ccccc3)C2)cc1 (centres undefined) | active: 20.6 µM | 
20 | CC1(C)Cc2c(sc3c2c(=N)n(Cc2ccco2)c(=O)n3Cc2ccccc2)CO1 | active: 18.4 µM | 
21 | Cc1ccc(Cn2nnc3c(=O)[nH]c(C4CCN(C(=O)Cc5ccccc5F)CC4)nc32)cc1 | inconclusive [inhibitor, single point] | 
22 | Cc1ccc(CNC(=O)C2CCN(S(=O)(=O)N3CCCCC3)CC2)cc1 | inconclusive [inhibitor, single point] | 

Row | Structure (SMILES) | Potency | activity change, negative = growth inhibition
23 | CC(=O)c1c(C)oc2ccc(N(C(=O)Oc3ccccc3)S(=O)(=O)c3ccc(Cl)cc3)cc12 | inactive | 
24 | Cc1[nH]c2ccccc2c1C(=O)CSc1ccc(F)cc1 | inconclusive [inhibitor, single point] | 
25 | CCOc1ccc(CNC(=O)c2ccc3oc(=O)n(Cc4ccccc4)c3c2)cc1 | inconclusive [inhibitor, single point] | 
26 | CC(C)c1c(C#N)c(N)nc(SCC(=O)c2cc3ccccc3oc2=O)c1C#N | inconclusive [inhibitor, partial curve] | 
27 | COc1ccc(CCNC(=O)CCc2c(C)nc3c4c(C)cc(C)nc4nn3c2C)cc1OC | inconclusive [inhibitor, single point] | 
28 | COc1ccc(-n2c(SCC(N)=O)nc3sc4c(c3c2=O)CCC4)cc1 | inactive | 
29 | Cc1ccc(-c2csc(NC(=O)CN3C(=O)CCC3=O)n2)cc1 | inactive | 
30 | Fc1ccc(N2CCN(c3nc4ccccc4c4nc(-c5ccccc5)nn34)CC2)cc1 | inconclusive [inhibitor, partial curve, poor fit] | 
31 | COc1ccc(CC(=O)OCC(=O)N2CCN(S(=O)(=O)c3ccc(C)cc3C)CC2)cc1OC | inconclusive [inhibitor, single point] | 
32 | CCN(C(=O)COC(=O)C1CCN(S(=O)(=O)c2ccc3c(c2)OCCO3)CC1)C1CCS(=O)(=O)C1 (centres undefined) | inactive | 
33 | CCCNc1nc2c(c(=O)n(C)c(=O)n2C)n1CCc1ccccc1 | active: 5.01 µM | 
34 | COc1ccc(Cn2c(=O)[nH]c3cc(C(=O)NCCCOC(C)C)ccc3c2=O)cc1 | inactive | 
35 | CCOC(=O)c1c(NC(=O)CC2SC(N)=NC2=O)sc2c1CCCC2 (centres undefined) |  | inconclusive: -21.4% [inhibitor]
36 | COc1cc(NC(=O)CSc2nc(C)cc(C)n2)cc(OC)c1OC | inconclusive [inhibitor, partial curve] | 
37 | Cc1cc(Nc2ccccc2Cl)nc(-c2ccccc2O)n1 | inconclusive [inhibitor, single point] | 
38 | O=C(COC(=O)/C=C/c1cccc(Cl)c1)NCCc1ccccc1 | inactive | 
39 | Cc1ccc(S(=O)(=O)Nc2cccc(-c3ccc(N4CCC(C)CC4)nn3)c2)s1 | inconclusive [inhibitor, single point] | 
40 | O=C(c1ccc(NS(=O)(=O)c2ccccc2)cc1)N1CCCCCC1 | inconclusive [inhibitor, single point] | 
41 | Cc1nc2ccccc2c(=O)n1/N=C/c1cn(-c2ccccc2)nc1-c1cccs1 | inconclusive [inhibitor, single point] | 
42 | O=C(/C=C/c1ccc(Cl)cc1)N1CCN(c2ccc(Cl)cc2[N+](=O)[O-])CC1 | inconclusive [inhibitor, single point] | 
43 | Clc1cc(Br)ccc1OCCOCCOc1cccc2cccnc12 | inconclusive [inhibitor, single point] | 
44 | CCOc1ccc(Br)cc1S(=O)(=O)Nc1ccc(N2CCOCC2)cc1 | inconclusive [inhibitor, partial curve] | 
